Measurements taken from the RNAGym collection of RNA variant scans (doi:10.1093/nar/gkz1192).
Read counts are not given, so values of variants with three or more changes are uncertain.

B1: CPEB3 Ribozyme (parent)
chain: UAACAGGGGGCCACAGCAGAAGCGUUCACGUCGCAGCCCCUGUCAGAUUCUGGUGAAUCUGCGAAUUCUGCUGUAUAUCUC

Variants of: B1
Test: self-cleavage, relative activity (ratio to wild type); higher = more cleavage; in vitro, sequencing
In short: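 For each CPEB3 ribozyme variant, relative activity is its cleaved/total read fraction divided by the unmutated ribozyme's. Barcoded error-prone PCR libraries were transcribed by T7 RNA polymerase (5 hours, 37°C) and held in DNase I for 15 min before an EDTA stop, with cleavage occurring throughout. Template-switching reverse transcription and Illumina sequencing were used to read the RNAs. A 5-read minimum applied, and results are the mean of three batches.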

Row | Variant | self-cleavage
1 | A15U A45G G55A U72A | 0.44
2 | A15U A18G A65G U80C | 0.16
3 | A15U A21G A45U U69A | 0.14
4 | A15U A28G U49C | 0.12
5 | A15U A20U C37A A47U | 0.37
6 | A15U A21G G24A U26C U41C U54C A64G | 0.12
7 | A15G U60C C79A | 0.44
8 | A15U A18U A20U U26A C39U U51G U58C | 0.15
9 | A15U A35G A64G U67C | 0.42
10 | A15U A28G U31C A45U C62G U69A | 0.07
11 | A15G U74C U80C | 1.29
12 | A15U A57G U76C | 1.09
13 | A15U A28G U48C | 0.57
14 | A15U C29U G52A | 0.38
15 | A15G U66C U80C | 0.31
16 | A15U A28G C29U U41A U48C | 0.06
17 | A15U A35G U41C U66C | 1.07
18 | A15U A18U C40U | 0.33
19 | A15U A21U A64G | 0.17
20 | A15U A35U G52U A64G | 0.53
21 | A15U A18U A64G | 0.15

Row | Variant | self-cleavage
22 | A15U A18U A64U | 0.11
23 | A15U A18U U26C A65U U80C | 0.17
24 | A15U C23A U31G A75U | 0.06
25 | A15G U72C U80C | 1.14
26 | A15U A28U U60G | 0.15
27 | A15U C17U U41C A65G U80C | 0.13
28 | A15U A18U G63A | 0.13
29 | A15U A20G A47U U60C A77G U80G | 0.16
30 | A15U A28U U31C | 0.47
31 | A15U A47G U49C | 0.33
32 | A15U C27G A57G U74C | 0.35
33 | A15U A20G U43A A45U A57G U58C | 0.16
34 | A15U A21U U26A | 0.06
35 | A15U A35U A45G | 0.41
36 | A15U A21U U25C C27A U54C A64G | 0.08
37 | A15U A18G A57G U60C U66C | 0.27
38 | A15U A35U U48C U51A | 0.1
39 | A15U A18C A56G U60C | 0.18
40 | A15U A35G U80C | 1.27
41 | A15U C29U U67C | 0.04
42 | A15U A18U U25C U26A U72A G73A U76C | 0.06

Row | Variant | self-cleavage
43 | A15U A18C U80C | 0.35
44 | A15U A20G U26C | 0.16
45 | A15U A35U A56G U74A | 0.61
46 | A15U A45U A57G A75G | 0.11
47 | A15U A28G U43C C50U U58C | 0.07
48 | A15U A35U U69A A75G | 0.17
49 | A15U A28G A65G U72A | 0.13
50 | A15U A18G A65G A77G | 0.08
51 | A15U A18U G33U A57U U60C | 0.04
52 | A15U A21G C32A A56G | 0.17
53 | A15U A21G C44U C50G U72C U80A | 0.12
54 | A15G U66G U69C | 0.25
55 | A15U A64C A77U U78C | 0.16
56 | A15U A20G U48C U60A | 0.1
57 | A15U A35U G61A | 0.29
58 | A15U A47G U54C A64G U69A | 0.12
59 | A15U A20G A45U A64G U74C U80C | 0.2
60 | A15U A56G U72C | 0.75
61 | A15U A20G A28G A35G U66C U80A | 0.18
62 | A15U A20U C40U U43A U58C C62U A77U | 0.04
63 | A15G U72C U74C | 1.21

Row | Variant | self-cleavage
64 | A15U A28G C68U U69C | 0.13
65 | A15U A35C A64U | 0.45
66 | A15G U67A U76C | 0.48
67 | A15U A20G U48C A64G A65G U78A | 0.04
68 | A15U A18U U48C A57G U72C | 0.31
69 | A15U A20U U25C A35G U41C U67C U74C | 0.11
70 | A15U A20G U25C | 0.35
71 | A15U A28U U48C U72G A77G | 0.24
72 | A15G U60C U69A A75U | 0.22
73 | A15U A21G U41C C50G U60C A77U | 0.07
74 | A15G U67C A77U | 0.15
75 | A15U A45G U74A | 0.71
76 | A15U A18G G30U U69C | 0.15
77 | A15U A20G U66C U78C | 0.28
78 | A15U A75U U78C | 0.56
79 | A15U A20C U69A | 0.14
80 | A15U A18G C27U C32U U41C U43A | 0.26
81 | A15U A18G U58C | 0.21
82 | A15U A18U C62U U74C U76C | 0.13
83 | A15U A20U U25A U31C U49A A57G | 0.07
